Experimental data from publication PMC4336329 (PLoS ONE, 2015).
About 14,000 (4.5%) of roughly 310,000 compounds showed an effect of 50% or more. Effects have a minus sign here. The list shows a part of the results.
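Further: peak tail current of the secondary pulse compared with the same well before compound.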

What follows are compounds tested against human ether-à-go-go-related gene (hERG) potassium channel (human, UniProt Q12809) (assay: primary screen, population patch clamp on CHO cells stably expressing hERG).
Chain of human ether-à-go-go-related gene (hERG) potassium channel (Q12809 whole entry, looked up): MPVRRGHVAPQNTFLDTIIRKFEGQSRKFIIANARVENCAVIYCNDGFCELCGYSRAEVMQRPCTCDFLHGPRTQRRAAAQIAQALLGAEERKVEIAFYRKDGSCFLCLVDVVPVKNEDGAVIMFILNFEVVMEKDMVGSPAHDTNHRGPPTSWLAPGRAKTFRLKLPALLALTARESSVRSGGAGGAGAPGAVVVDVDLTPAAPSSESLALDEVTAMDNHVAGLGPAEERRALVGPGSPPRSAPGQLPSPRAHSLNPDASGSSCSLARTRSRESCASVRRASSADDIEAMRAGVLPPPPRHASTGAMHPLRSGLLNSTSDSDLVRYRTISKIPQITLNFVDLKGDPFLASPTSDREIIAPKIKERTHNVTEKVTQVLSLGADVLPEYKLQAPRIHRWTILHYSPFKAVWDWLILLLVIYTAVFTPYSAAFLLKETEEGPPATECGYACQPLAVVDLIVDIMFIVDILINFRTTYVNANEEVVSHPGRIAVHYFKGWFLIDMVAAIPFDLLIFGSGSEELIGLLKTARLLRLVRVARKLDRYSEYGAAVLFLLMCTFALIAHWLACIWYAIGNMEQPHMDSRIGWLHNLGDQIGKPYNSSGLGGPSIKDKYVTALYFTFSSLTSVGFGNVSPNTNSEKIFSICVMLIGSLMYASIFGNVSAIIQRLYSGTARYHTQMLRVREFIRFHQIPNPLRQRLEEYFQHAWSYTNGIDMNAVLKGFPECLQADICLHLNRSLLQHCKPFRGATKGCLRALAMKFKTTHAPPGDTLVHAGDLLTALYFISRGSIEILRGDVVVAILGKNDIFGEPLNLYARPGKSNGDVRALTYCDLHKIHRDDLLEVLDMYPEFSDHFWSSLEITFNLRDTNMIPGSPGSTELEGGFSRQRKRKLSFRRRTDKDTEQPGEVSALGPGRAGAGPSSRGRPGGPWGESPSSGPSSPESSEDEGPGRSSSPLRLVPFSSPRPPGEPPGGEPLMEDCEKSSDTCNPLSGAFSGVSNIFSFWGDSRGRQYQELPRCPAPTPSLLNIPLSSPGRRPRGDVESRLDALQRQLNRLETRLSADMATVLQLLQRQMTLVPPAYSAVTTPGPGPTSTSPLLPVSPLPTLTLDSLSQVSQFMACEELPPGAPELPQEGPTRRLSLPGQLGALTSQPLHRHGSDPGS
`Cc1noc(/C=C/c2ccco2)c1S(=O)(=O)N1CCC(C(=O)NC(C)c2ccccc2)CC1` (centres unmarked) was tested, and the “hERG current change (%, negative = inhibition) at 10uM” value was 9.3%. With `CCc1cc2c(=O)c(-c3ccc4c(c3)OCCO4)coc2cc1OS(C)(=O)=O` the “hERG current change (%, negative = inhibition) at 10uM” value was 12.9%. With `COc1ccc2c(c1)c(CCNNC(=O)C(C)(C)C)c(C)n2C(=O)c1ccc(Cl)cc1` the “hERG current change (%, negative = inhibition) at 10uM” value was -21.2%. In the case of `CCC(=O)N/N=C(\C)CC(=O)Nc1ccc(Cl)cc1`, the “hERG current change (%, negative = inhibition) at 10uM” value was -3.4%. `CC(=O)c1cccc(NC(=O)C2CCCCC2)c1` was tested, and the “hERG current change (%, negative = inhibition) at 10uM” value was 10.4%. In the case of `CN(C)CCCNCCCNC(=O)c1ccccn1`, the “hERG current change (%, negative = inhibition) at 10uM” value was -0.317%. With `CC(C)C(=O)NCc1cc(-c2ccccc2)no1` the “hERG current change (%, negative = inhibition) at 10uM” value was 16.8%. `COc1ccc(NC(=O)c2cccc(S(=O)(=O)NCc3ccccc3)c2)cc1S(N)(=O)=O` was tested, and the “hERG current change (%, negative = inhibition) at 10uM” value was -6.19%. In the case of `CC1(C(=O)NC2CCCCCCC2)CCC(=O)N1Cc1cccs1` (centres unmarked), the “hERG current change (%, negative = inhibition) at 10uM” value was -10.8%. `COc1ccc(-c2nnnn2C)cc1S(=O)(=O)Nc1ccc(C)cc1C` was tested, and the “hERG current change (%, negative = inhibition) at 10uM” value was -7.53%. For `CCOP(=O)(OCC)C(NC(=O)C(C)C)C(Cl)(Cl)Cl` (centres unmarked), the “hERG current change (%, negative = inhibition) at 10uM” value was 3.71%. In the case of `C=CCOc1ccc(C2c3c(oc4ccccc4c3=O)C(=O)N2CCCN2CCOCC2)cc1` (centres unmarked), the “hERG current change (%, negative = inhibition) at 10uM” value was -47.8%. With `CCOc1ccc(C(=O)NCCCN(CC)CC)cc1` the “hERG current change (%, negative = inhibition) at 10uM” value was -51.8%. `Cc1ccc(Cn2ccc(NC(=O)c3c(-c4ccccc4Cl)noc3C)n2)cc1` was tested, and the “hERG current change (%, negative = inhibition) at 10uM” value was -15.7%. `CCC(=O)Nc1ccc2c(c1)nc1n2CCSC1` was tested, and the “hERG current change (%, negative = inhibition) at 10uM” value was 4.81%. `C/C(=N\NC(=O)C1CC1)c1ccc(N2CCOCC2)cc1` was tested, and the “hERG current change (%, negative = inhibition) at 10uM” value was -0.403%. `Oc1ccc(NC(=S)Nc2ccccc2)cc1` was tested, and the “hERG current change (%, negative = inhibition) at 10uM” value was 6.12%. `COc1ccc(C(=O)NC(Nc2ccc(C)cc2)C(Cl)(Cl)Cl)cc1` (centres unmarked) was tested, and the “hERG current change (%, negative = inhibition) at 10uM” value was -0.867%. For `CCOc1ncccc1C(=O)OCC(=O)N1c2ccccc2CC1C` (centres unmarked), the “hERG current change (%, negative = inhibition) at 10uM” value was -19.1%. For `O=C(CN1CCN(Cc2ccccc2)CC1)Nc1ccc(Br)cc1`, the “hERG current change (%, negative = inhibition) at 10uM” value was -71.9%. In the case of `COc1ccc(CNC(=O)COC(=O)c2ccc(Br)o2)cc1`, the “hERG current change (%, negative = inhibition) at 10uM” value was 6.76%. `COc1ccc(S(=O)(=O)Nc2ccccc2-c2nc3ccccc3[nH]c2=O)cc1` was tested, and the “hERG current change (%, negative = inhibition) at 10uM” value was -9.79%. For `COc1ccc(CNC(=O)CCn2c(=O)c3cccn3c3ccc(F)cc32)cc1`, the “hERG current change (%, negative = inhibition) at 10uM” value was -7.82%. With `O=C(c1oc(=O)c2ccccc2c1-c1ccccc1)N1CCC(O)CC1` the “hERG current change (%, negative = inhibition) at 10uM” value was -11.6%. In the case of `O=C(NCc1ccc(F)cc1)C1CCN(C(=O)Nc2ccc(F)cc2)CC1`, the “hERG current change (%, negative = inhibition) at 10uM” value was -49.2%. With `O=C(N1CCC(O)(c2cccnc2)CC1)C12CC3CC(CC(C3)C1)C2` the “hERG current change (%, negative = inhibition) at 10uM” value was -5.02%. In the case of `CO/N=C/c1ccc(N2CCN(C(=O)c3cccc(C(F)(F)F)c3)CC2)c([N+](=O)[O-])c1`, the “hERG current change (%, negative = inhibition) at 10uM” value was -43.5%. With `O=C(CN1C(=O)/C(=C/c2ccccc2)SC1=S)NC1CCS(=O)(=O)C1` (centres unmarked) the “hERG current change (%, negative = inhibition) at 10uM” value was 14.9%. `CCOc1ccccc1N(C)S(=O)(=O)c1ccc2c(c1)N(C(C)=O)CCO2` was tested, and the “hERG current change (%, negative = inhibition) at 10uM” value was 11.9%. For `CCC(C)NC(=O)C1CCCN(C(=O)NC2CCCCC2)C1` (centres unmarked), the “hERG current change (%, negative = inhibition) at 10uM” value was 13.8%. With `CC(C)Cn1c(=O)c2c(nc3n2CCCN3CCc2ccccc2)n(C)c1=O` the “hERG current change (%, negative = inhibition) at 10uM” value was -76%. With `NC(=O)c1ccc(NC(=O)COc2coc(CN3CCc4ccccc4C3)cc2=O)cc1` the “hERG current change (%, negative = inhibition) at 10uM” value was -1.88%. For `COc1ccc(N(CC(=O)Nc2ccc3c(c2)OCO3)S(=O)(=O)c2ccccc2)cc1OC`, the “hERG current change (%, negative = inhibition) at 10uM” value was 4.09%. With `CCCNC(=O)CS(=O)(=O)Cc1nc(-c2ccccc2C)oc1C` the “hERG current change (%, negative = inhibition) at 10uM” value was 3.88%. For `CC(NC(=O)COC(=O)c1cc(=O)[nH]c2ccccc12)c1ccccc1` (centres unmarked), the “hERG current change (%, negative = inhibition) at 10uM” value was 10.7%. With `CCCCc1ccc(S(=O)(=O)NC2CCS(=O)(=O)C2)cc1` (centres unmarked) the “hERG current change (%, negative = inhibition) at 10uM” value was -2.26%. In the case of `Cl.OC(COc1ccc(Cl)c2ccccc12)CN1CCN(c2ccccn2)CC1` (centres unmarked), the “hERG current change (%, negative = inhibition) at 10uM” value was -21.9%. With `Cc1ccc(-n2c(C)cc(C)c(C#N)c2=O)cc1Cl` the “hERG current change (%, negative = inhibition) at 10uM” value was 0.68%. `CN1CCN(C(=O)C2CCCN(S(=O)(=O)c3ccccc3)C2)CC1` (centres unmarked) was tested, and the “hERG current change (%, negative = inhibition) at 10uM” value was 13.8%. In the case of `COc1cc(C(=O)OCCc2cc3ccccc3c(=O)o2)cc(OC)c1OC`, the “hERG current change (%, negative = inhibition) at 10uM” value was -14.6%. With `O=C(NCC1CCN(Cc2ccccc2F)CC1)Nc1cccc(Br)c1` the “hERG current change (%, negative = inhibition) at 10uM” value was -43.2%. In the case of `CCC(COC)NC(=O)c1ccc(OC)c(OC2CCN(C(C)=O)CC2)c1` (centres unmarked), the “hERG current change (%, negative = inhibition) at 10uM” value was 8.31%. `N#Cc1ccccc1NC(=O)C1SC(=Nc2ccccc2)C(C(=O)Nc2ccc(Cl)cc2)=C1N` (centres unmarked) was tested, and the “hERG current change (%, negative = inhibition) at 10uM” value was 8.69%. With `COc1ccccc1-c1noc(-c2cccnc2)n1` the “hERG current change (%, negative = inhibition) at 10uM” value was 11.9%.
